Measured values as given in PubChem BioAssay AID1745853 (National Center for Advancing Translational Sciences (NCATS), 2022).
Some of the results follow. The main result of the screen is listed elsewhere. These columns were measured beside it and carry no call.

Key:
Assay in all cases: Primary Screen for Target Class Profiling of Small Molecule Inhibitors of Methyltransferases
[1] = molecular target: Glycine N-methyltransferase (Homo sapiens) (UniProt Q14749); conditions: purified enzyme, MTase-Glo SAH luminescence; measured here: GNMT inhibition; at 40 µM; stronger effect = lower value
Procedure, shortened: (§1)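 Each enzyme was assayed with SAM and its substrate. SAH formation detected by MTase-Glo luminescence; single-point 40 uM screen[…].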

[2] = molecular target: Guanidinoacetate N-methyltransferase (Homo sapiens) (UniProt Q14353); conditions: purified enzyme, MTase-Glo SAH luminescence; measured here: GAMT inhibition; at 40 µM; stronger effect = lower value
Procedure, shortened: as §1

[3] = molecular target: Histamine N-methyltransferase (Homo sapiens) (UniProt P50135); conditions: purified enzyme, MTase-Glo SAH luminescence; measured here: HNMT inhibition; at 40 µM; stronger effect = lower value
Procedure, shortened: as §1

[4] = molecular target: Nicotinamide N-methyltransferase (Homo sapiens) (UniProt P40261); conditions: purified enzyme, MTase-Glo SAH luminescence; measured here: NNMT inhibition; at 40 µM; stronger effect = lower value
Procedure, shortened: as §1

[5] = molecular target: Phenylethanolamine N-methyltransferase (Homo sapiens) (UniProt P11086); conditions: purified enzyme, MTase-Glo SAH luminescence; measured here: PNMT inhibition; at 40 µM; stronger effect = lower value
Procedure, shortened: as §1
% is scaled to controls: 0 for no effect and ±100 for the full control effect.

Row | SMILES | activity change, negative = inhibition [1] [%] | activity change, negative = inhibition [2] [%] | activity change, negative = inhibition [3] [%] | activity change, negative = inhibition [4] [%] | activity change, negative = inhibition [5] [%]
1 | Cc1ccc(Cl)cc1N1CCN(CCNC(=O)CCc2nnc3n(C)c(=O)c4ccccc4n23)CC1 | -9.94 | 1.24 | -13.6 | -9.06 | -3.8
2 | COc1cccc(-c2ccc([C@@H](Oc3cc(-c4ccc(C[C@H](N)C(=O)O)cc4)nc(N)n3)C(F)(F)F)cc2)c1 | -11.9 | 22.5 | 9.73 | -3.84 | 9.32
3 | CC(C)c1nc2c(NC(=O)Nc3cccc(Cl)c3)cccn2n1 | -9.92 | -4.18 | -1.89 | -5.14 | -22.3
4 | Cc1ccc(CNC(=O)c2cc3n(n2)CC(C)(C(=O)NC2CCCCCC2)N(C)C3=O)cc1 (stereo not given) | 1.83 | 0.31 | 8.7 | 3.01 | 4.79
5 | CC(C)n1c(=O)c2ccc(C(=O)NC3CCCCC3)cc2n2c(=O)n(CC(=O)NCc3ccccc3)nc12 | -4.64 | -3.37 | -4.93 | -8.93 | -6.26
6 | C/C=C/c1ccc2oc(-c3ccc(O)c(OC)c3)c(C)c2c1 | -1.02 | -0.009 | 1.56 | -15.4 | -11.3
7 | O=C1c2c(O[C@@H]3O[C@H](CO)[C@@H](O)[C@H](O)[C@H]3O)cc(O)cc2OC1(O)Cc1ccc(O)cc1 (stereo not given in full) | 6.66 | 6.43 | 13.4 | -4.97 | 5.66
8 | COc1ccc(-c2nc3c(c(=O)[nH]2)CCN(C(=O)CSc2ccccc2)C3)cc1 | -7.79 | -0.062 | -1.95 | -3.75 | 14.8
9 | O=C(NCC1CC1)C1CN(Cc2ccccc2)C(=O)N1 (stereo not given) | -3.67 | -5.32 | -0.835 | -6.73 | -15.4
10 | CC(C)CCNC(=O)C1(C)Cn2c(ccc2-c2ccco2)C(=O)N1CC(C)c1ccccc1 (stereo not given) | -4.35 | 6.17 | -0.415 | -4.98 | 1.22
11 | CC(C)c1c(O)ccc2c1CC[C@H]1C(C)(C)CCC[C@]21C | -9.14 | -9.48 | 1.79 | -27.7 | -3.5
12 | COc1cc(C(O)CO)ccc1OS(=O)(=O)O (stereo not given) | -1.8 | 4.99 | -0.926 | -2.59 | 9.53
13 | c1cc(-c2cnn3cc(-c4ccc(N5CCNCC5)cc4)cnc23)c2cccnc2c1 | -0.827 | 9.15 | 4.08 | -14.9 | 2.53
14 | CC(C)NC(=O)N1CC2ON=C(C(=O)N3CCOCC3)C2C1 (stereo not given) | -0.529 | -0.29 | 2.04 | -2.77 | -1.63
15 | CN1CCN(c2nc3c(c(=O)[nH]2)CCN(Cc2cn[nH]c2-c2ccc(F)cc2)CC3)CC1 | -3.95 | -0.016 | -8.42 | -0.51 | 6.18
16 | CC(C)OCCCNC(=O)CCc1nnc2n(Cc3ccccc3)c(=O)c3ccccc3n12 | -8.01 | 5.09 | 2.52 | 6.08 | -1.61
17 | CC(C)CCNC(=O)C1(C)Cn2c(cc3ccccc32)C(=O)N1Cc1ccco1 (stereo not given) | 8.46 | 0 | 12 | 12.6 | 3.85
